# Experimental data: the supplement of paper PMC8728848
# The other results are listed elsewhere or left out.
# B1: Blon2468mut (Bifidobacterium longum) (protein)
# chain: MTFIKQMMPRYVASMTAGIVAAAMAATCAFAPVANADAVSPTQETIQSTGRHFMVYYRAWRDVTMKGVNTDLPDDNWISMYDIPYGVDVVNIFSYVPSGQEEQAQPFYDKLKSDYAPYLHSRGIKLVRGIDYTGVAVNGFRTFMKEQNKTESEATEADYDAYAKQVIDKYMISVGLDGLDIDMQAHPNDADVKISDNVIRALSKHIGPKSAKPDTTMFLYDTNGSYLNPFKNVAECFDYVAYQQYGSSSDRTARAAADYQPYIGNEFVPGLTFPEEGDMNNRWYDATEPYEESHFYQVASYVREHNLGGMFVYALDRDGRNYDEDLRRIVPSNLLWTKTAIAESEGMALDTAKTAANHYLDRMSLRQVIDDNAASADKARDMVGKAANLYETNKAVLGGDYGEGFSNTYDPTLEAGLLGIDISVLQQQIDKSSEIIGADTAESDAKTALRMARDAAIDGLTGKIYTADQVSAWSQALKAALDATVPVPTPDSTDQNGNRDKVTNHKVQGQPKQLSATGISTDIIVAVGVTLAIAGVALSLSRKLS
# Legend:
# Experiment in all cases: glycan array binding signal (z-score within array); higher = stronger binding
# Settings in all cases: glycan notation: IUPAC condensed, linker removed
# [1] = target: Fuc(a1-3)[Gal(b1-4)]Glc6S
# Procedure, shortened: (§1)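 Glycan array data were curated from 3228 arrays in the Consortium for Functional Glycomics database and kept only where the protein sequence was available. Glycan names were converted to IUPAC-condensed notation, and columns mapping to the same glycan were averaged. The binding signal is a within-array Z-score, averaged across arrays of the same protein sequence at different concentrations or buffers and across linkers. Negative Z-scores can be read as non-binding.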
# [2] = target: Fuc(a1-3)[Gal(b1-4)]GlcNAc
# Procedure, shortened: as §1
# [3] = target: Fuc(a1-3)[Gal(b1-4)]GlcNAc(b1-2)Man
# Procedure, shortened: as §1
# [4] = target: Fuc(a1-3)[Gal(b1-4)]GlcNAc(b1-2)Man(a1-3)[Fuc(a1-3)[Gal(b1-4)]GlcNAc(b1-2)Man(a1-6)]Man(b1-4)GlcNAc(b1-4)GlcNAc
# Procedure, shortened: as §1
# [5] = target: Fuc(a1-3)[Gal(b1-4)]GlcNAc(b1-2)Man(a1-3)[Fuc(a1-3)[Gal(b1-4)]GlcNAc(b1-2)Man(a1-6)]Man(b1-4)GlcNAc(b1-4)[Fuc(a1-6)]GlcNAc
# Procedure, shortened: as §1
# [6] = target: Fuc(a1-3)[Gal(b1-4)]GlcNAc(b1-3)Gal(b1-3)[Fuc(a1-4)]GlcNAc
# Procedure, shortened: as §1
# [7] = target: Fuc(a1-3)[Gal(b1-4)]GlcNAc(b1-3)GalNAc
# Procedure, shortened: as §1
# [8] = target: Fuc(a1-3)[Gal(b1-4)]GlcNAc(b1-4)Gal(b1-4)[Fuc(a1-3)]GlcNAc
# Procedure, shortened: as §1
# [9] = target: Fuc(a1-3)[Gal(b1-4)]GlcNAc(b1-4)Gal(b1-4)[Fuc(a1-3)]GlcNAc(b1-4)Gal(b1-4)[Fuc(a1-3)]GlcNAc
# Procedure, shortened: as §1
# [10] = target: Fuc(a1-3)[Gal(b1-4)]GlcNAc(b1-6)GalNAc
# Procedure, shortened: as §1
# [11] = target: Fuc(a1-3)[Gal(b1-4)]GlcNAc(b1-6)[Gal(b1-3)GlcNAc(b1-3)]Gal(b1-4)Glc
# Procedure, shortened: as §1
# [12] = target: Fuc(a1-3)[Gal(b1-4)]GlcNAc6S
# Procedure, shortened: as §1
# [13] = target: Fuc(a1-3)[Gal3S(b1-4)]Glc
# Procedure, shortened: as §1
# [14] = target: Fuc(a1-3)[Gal3S(b1-4)]GlcNAc
# Procedure, shortened: as §1
# [15] = target: Fuc(a1-3)[Gal3S(b1-4)]GlcNAc6S
# Procedure, shortened: as §1
# [16] = target: Fuc(a1-3)[GalNAc(b1-4)]GlcNAc
# Procedure, shortened: as §1
# [17] = target: Fuc(a1-3)[GalNAc(b1-4)]GlcNAc6S
# Procedure, shortened: as §1
# Fuc(a1-4)GlcNAc = target: Fuc(a1-4)GlcNAc
# Procedure, shortened: as §1
# Fuc(b1-3)GlcNAc = target: Fuc(b1-3)GlcNAc
# Procedure, shortened: as §1
# Gal(a1-2)Gal = target: Gal(a1-2)Gal
# Procedure, shortened: as §1
# Gal(a1-3)Gal = target: Gal(a1-3)Gal
# Procedure, shortened: as §1
# Gal(a1-3)Gal(b1-3)GlcNAc = target: Gal(a1-3)Gal(b1-3)GlcNAc
# Procedure, shortened: as §1
# [18] = target: Gal(a1-3)Gal(b1-3)GlcNAc(b1-2)Man
# Procedure, shortened: as §1
# [19] = target: Gal(a1-3)Gal(b1-3)GlcNAc(b1-2)Man(a1-3)[Gal(a1-3)Gal(b1-3)GlcNAc(b1-2)Man(a1-6)]Man(b1-4)GlcNAc(b1-4)GlcNAc
# Procedure, shortened: as §1
# [20] = target: Gal(a1-3)Gal(b1-3)GlcNAc(b1-3)GalNAc
# Procedure, shortened: as §1
# [21] = target: Gal(a1-3)Gal(b1-3)GlcNAc(b1-6)GalNAc
# Procedure, shortened: as §1
# [22] = target: Gal(a1-3)Gal(b1-3)[Fuc(a1-4)]GlcNAc(b1-2)Man(a1-3)[Gal(a1-3)Gal(b1-3)[Fuc(a1-4)]GlcNAc(b1-2)Man(a1-6)]Man(b1-4)GlcNAc(b1-4)GlcNAc
# Procedure, shortened: as §1
# Gal(a1-3)Gal(b1-4)Glc = target: Gal(a1-3)Gal(b1-4)Glc
# Procedure, shortened: as §1
# Gal(a1-3)Gal(b1-4)GlcNAc = target: Gal(a1-3)Gal(b1-4)GlcNAc
# Procedure, shortened: as §1
# [23] = target: Gal(a1-3)Gal(b1-4)GlcNAc(b1-2)Man
# Procedure, shortened: as §1
# [24] = target: Gal(a1-3)Gal(b1-4)GlcNAc(b1-2)Man(a1-3)[Gal(a1-3)Gal(b1-4)GlcNAc(b1-2)Man(a1-6)]Man(b1-4)GlcNAc(b1-4)GlcNAc
# Procedure, shortened: as §1
# [25] = target: Gal(a1-3)Gal(b1-4)GlcNAc(b1-3)GalNAc
# Procedure, shortened: as §1
# [26] = target: Gal(a1-3)Gal(b1-4)GlcNAc(b1-6)GalNAc
# Procedure, shortened: as §1
# [27] = target: Gal(a1-3)Gal(b1-4)[Fuc(a1-3)]GlcNAc
# Procedure, shortened: as §1
# [28] = target: Gal(a1-3)Gal(b1-4)[Fuc(a1-3)]GlcNAc(b1-2)Man(a1-3)[Gal(a1-3)Gal(b1-4)[Fuc(a1-3)]GlcNAc(b1-2)Man(a1-6)]Man(b1-4)GlcNAc(b1-4)GlcNAc
# Procedure, shortened: as §1
# Gal(a1-3)GalNAc = target: Gal(a1-3)GalNAc
# Procedure, shortened: as §1
# [29] = target: Gal(a1-3)[Gal(a1-4)]Gal(b1-4)GlcNAc
# Procedure, shortened: as §1
# [30] = target: Gal(a1-4)Gal(b1-3)GlcNAc(b1-2)Man(a1-3)[Gal(a1-4)Gal(b1-3)GlcNAc(b1-2)Man(a1-6)]Man(b1-4)GlcNAc(b1-4)GlcNAc
# Procedure, shortened: as §1
# Gal(a1-4)Gal(b1-4)Glc = target: Gal(a1-4)Gal(b1-4)Glc
# Procedure, shortened: as §1
# Gal(a1-4)Gal(b1-4)GlcNAc = target: Gal(a1-4)Gal(b1-4)GlcNAc
# Procedure, shortened: as §1
# [31] = target: Gal(a1-4)Gal(b1-4)GlcNAc(b1-2)Man(a1-3)[Gal(a1-4)Gal(b1-4)GlcNAc(b1-2)Man(a1-6)]Man(b1-4)GlcNAc(b1-4)GlcNAc
# Procedure, shortened: as §1
# [32] = target: Gal(a1-4)Gal(b1-4)GlcNAc(b1-3)Gal(b1-4)Glc
# Procedure, shortened: as §1
# Gal(a1-4)GlcNAc = target: Gal(a1-4)GlcNAc
# Procedure, shortened: as §1
# Gal(a1-6)Glc = target: Gal(a1-6)Glc
# Procedure, shortened: as §1
# Gal(b1-2)Gal = target: Gal(b1-2)Gal
# Procedure, shortened: as §1
# Gal(b1-3)Gal = target: Gal(b1-3)Gal
# Procedure, shortened: as §1
# Gal(b1-3)Gal(b1-4)GlcNAc = target: Gal(b1-3)Gal(b1-4)GlcNAc
# Procedure, shortened: as §1
# Gal(b1-3)GalNAc = target: Gal(b1-3)GalNAc
# Procedure, shortened: as §1
# [33] = target: Gal(b1-3)GalNAc(a1-3)[Fuc(a1-2)]Gal(b1-4)Glc
# Procedure, shortened: as §1
# [34] = target: Gal(b1-3)GalNAc(a1-3)[Fuc(a1-2)]Gal(b1-4)GlcNAc
# Procedure, shortened: as §1
# Gal(b1-3)GalNAc(b1-3)Gal = target: Gal(b1-3)GalNAc(b1-3)Gal
# Procedure, shortened: as §1
# [35] = target: Gal(b1-3)GalNAc(b1-3)Gal(a1-4)Gal(b1-4)Glc
# Procedure, shortened: as §1
# [36] = target: Gal(b1-3)GalNAc(b1-4)Gal(b1-4)Glc
# Procedure, shortened: as §1
# [37] = target: Gal(b1-3)GalNAc(b1-4)[Neu5Ac(a2-3)]Gal(b1-4)Glc
# Procedure, shortened: as §1
# Gal(b1-3)GlcNAc = target: Gal(b1-3)GlcNAc
# Procedure, shortened: as §1
# [38] = target: Gal(b1-3)GlcNAc(a1-3)Gal(b1-4)GlcNAc
# Procedure, shortened: as §1
# [39] = target: Gal(b1-3)GlcNAc(a1-6)Gal(b1-4)GlcNAc
# Procedure, shortened: as §1
# Gal(b1-3)GlcNAc(b1-2)Man = target: Gal(b1-3)GlcNAc(b1-2)Man
# Procedure, shortened: as §1
# [40] = target: Gal(b1-3)GlcNAc(b1-2)Man(a1-3)[Gal(b1-3)GlcNAc(b1-2)Man(a1-6)]Man(b1-4)GlcNAc(b1-4)GlcNAc
# Procedure, shortened: as §1
# [41] = target: Gal(b1-3)GlcNAc(b1-2)Man(a1-3)[Gal(b1-3)GlcNAc(b1-2)Man(a1-6)]Man(b1-4)GlcNAc(b1-4)[Fuc(a1-6)]GlcNAc
# Procedure, shortened: as §1
binder,measurement,setting,value
B1,glycan array binding signal (z-score),[1],-0.085
same,glycan array binding signal (z-score),[2],-0.066
same,glycan array binding signal (z-score),[3],-0.022
same,glycan array binding signal (z-score),[4],-0.077
same,glycan array binding signal (z-score),[5],-0.086
same,glycan array binding signal (z-score),[6],-0.015
same,glycan array binding signal (z-score),[7],-0.029
same,glycan array binding signal (z-score),[8],-0.075
same,glycan array binding signal (z-score),[9],-0.049
same,glycan array binding signal (z-score),[10],-0.059
same,glycan array binding signal (z-score),[11],-0.088
same,glycan array binding signal (z-score),[12],-0.068
same,glycan array binding signal (z-score),[13],-0.062
same,glycan array binding signal (z-score),[14],-0.064
same,glycan array binding signal (z-score),[15],-0.087
same,glycan array binding signal (z-score),[16],-0.056
same,glycan array binding signal (z-score),[17],-0.062
same,glycan array binding signal (z-score),Fuc(a1-4)GlcNAc,-0.06
same,glycan array binding signal (z-score),Fuc(b1-3)GlcNAc,-0.083
same,glycan array binding signal (z-score),Gal(a1-2)Gal,-0.088
same,glycan array binding signal (z-score),Gal(a1-3)Gal,-0.082
same,glycan array binding signal (z-score),Gal(a1-3)Gal(b1-3)GlcNAc,-0.074
same,glycan array binding signal (z-score),[18],-0.087
same,glycan array binding signal (z-score),[19],-0.034
same,glycan array binding signal (z-score),[20],-0.082
same,glycan array binding signal (z-score),[21],-0.1
same,glycan array binding signal (z-score),[22],-0.057
same,glycan array binding signal (z-score),Gal(a1-3)Gal(b1-4)Glc,-0.034
same,glycan array binding signal (z-score),Gal(a1-3)Gal(b1-4)GlcNAc,-0.084
same,glycan array binding signal (z-score),[23],-0.088
same,glycan array binding signal (z-score),[24],-0.069
same,glycan array binding signal (z-score),[25],-0.074
same,glycan array binding signal (z-score),[26],-0.071
same,glycan array binding signal (z-score),[27],-0.083
same,glycan array binding signal (z-score),[28],-0.05
same,glycan array binding signal (z-score),Gal(a1-3)GalNAc,-0.031
same,glycan array binding signal (z-score),[29],0.009
same,glycan array binding signal (z-score),[30],-0.094
same,glycan array binding signal (z-score),Gal(a1-4)Gal(b1-4)Glc,-0.045
same,glycan array binding signal (z-score),Gal(a1-4)Gal(b1-4)GlcNAc,-0.04
same,glycan array binding signal (z-score),[31],-0.062
same,glycan array binding signal (z-score),[32],-0.052
same,glycan array binding signal (z-score),Gal(a1-4)GlcNAc,-0.05
same,glycan array binding signal (z-score),Gal(a1-6)Glc,-0.067
same,glycan array binding signal (z-score),Gal(b1-2)Gal,-0.062
same,glycan array binding signal (z-score),Gal(b1-3)Gal,-0.068
same,glycan array binding signal (z-score),Gal(b1-3)Gal(b1-4)GlcNAc,-0.047
same,glycan array binding signal (z-score),Gal(b1-3)GalNAc,-0.072
same,glycan array binding signal (z-score),[33],-0.066
same,glycan array binding signal (z-score),[34],-0.079
same,glycan array binding signal (z-score),Gal(b1-3)GalNAc(b1-3)Gal,-0.065
same,glycan array binding signal (z-score),[35],-0.03
same,glycan array binding signal (z-score),[36],-0.045
same,glycan array binding signal (z-score),[37],-0.063
same,glycan array binding signal (z-score),Gal(b1-3)GlcNAc,-0.068
same,glycan array binding signal (z-score),[38],-0.085
same,glycan array binding signal (z-score),[39],-0.086
same,glycan array binding signal (z-score),Gal(b1-3)GlcNAc(b1-2)Man,-0.078
same,glycan array binding signal (z-score),[40],-0.075
same,glycan array binding signal (z-score),[41],-0.068
